Experimental data: patent US20140348747A1 (published 2014)

Columns and labels:
[1] = target: T1, NLpoly 5P (3P + D108N + N144T); assay: luminescence complementation; HeLa lysate
T1 chain: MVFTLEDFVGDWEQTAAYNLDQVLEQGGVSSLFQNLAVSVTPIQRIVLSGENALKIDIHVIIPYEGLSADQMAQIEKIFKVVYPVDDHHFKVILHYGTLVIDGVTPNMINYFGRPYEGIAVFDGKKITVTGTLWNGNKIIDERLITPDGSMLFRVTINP

[2] = target: T1, NLpoly 5P (3P + D108N + N144T); assay: luminescence complementation; NanoGlo
[3] = target: T1, NLpoly 5P (3P + D108N + N144T); assay: luminescence complementation; PBS
[4] = target: T1, NLpoly 5P (3P + D108N + N144T); assay: luminescence complementation; average HeLa, HEK293, CHO lysates
[5] = target: T1, NLpoly 5P (3P + D108N + N144T); assay: luminescence complementation
[6] = target: T1, NLpoly 5P (3P + D108N + N144T); assay: luminescence complementation binding; NLpoly 5P expressed in E. coli
[7] = target: T1, NLpoly 5P (3P + D108N + N144T); assay: luminescence complementation; average HeLa, HEK293, CHO lysates

B1: NLpep83 (peptide)
peptide: Ac-NVSGWRLFKKIS-NH2
Q: With B1 as the binder, how does the Kd [1] read?
A: The Kd was 6 nM.

B2: NLpep84 (peptide)
peptide: Ac-NVSGWRLFKKI-NH2
Q: Which Kd [1] does the source give for B2 here?
A: Its Kd is 27 nM.

B3: NLpepWT (peptide)
peptide: GVTGWRLCERILA
Q: What does the source list for B3?
A: Kd [2]: 6040 nM; Kd [3]: 321 nM; Kd [4]: 4200 nM

B4: NLpep85 (peptide)
peptide: Ac-NVSGWRLFKK-NH2
Q: For B4, which Kd [1] is on record?
A: Its Kd is 257 nM.

B5: NLpep86 (peptide)
peptide: Ac-VSGWRLFKKIS-NH2
Q: How did the Kd [1] turn out when B5 was run?
A: Its Kd is 2 nM.

B6: NLpep81 (peptide)
peptide: Ac-SGWRLFKKISN-NH2
Q: With B6 as the binder, how does the Kd [1] read?
A: Its Kd is 101 nM.

Q: And the Kd [5]?
A: The Kd was 116 nM.

B7: NLpep87 (peptide)
peptide: Ac-SGWRLFKKI-NH2
Q: B7 was tested. Which Kd [1] did it give?
A: Its Kd is 282 nM.

Q: And the Kd [6]?
A: Its Kd is 352 nM.

B8: NLpep79 (peptide)
peptide: NVTGYRLFKKISN
Q: With B8 as the binder, how does the Kd [2] read?
A: The Kd was 307 nM.

Q: And the Kd [3]?
A: The Kd was 10 nM.

Q: And the Kd [4]?
A: The Kd was 64 nM.

B9: NLpep80 (peptide)
peptide: Ac-VSGWRLFKKISN-NH2
Q: For B9, which Kd [5] is on record?
A: Its Kd is 6.9 nM.

Q: What about the Kd [6] of the same binder?
A: The Kd was 5.4 nM.

B10: NLpep9 (peptide)
peptide: GVTGWRLCKRISA
Q: For B10, which Kd [7] is on record?
A: The Kd was 642 nM.

B11: NLpep82 (peptide)
peptide: Ac-GWRLFKKISN-NH2
Q: Which Kd [1] does the source give for B11 here?
A: Its Kd is 212 nM.

Q: And the Kd [5]?
A: Its Kd is 97.8 nM.

B12: NLpep53 (peptide)
peptide: GVTGWRLFKRISA
Q: Which Kd [7] does the source give for B12 here?
A: The Kd was 18 nM.
